# Measured values reported in PubChem BioAssay (Tox21).
# Inconclusive means that the source gave no clear call. Such entries were picked first, then a sample of the others. For some of these results: A potency beside an inconclusive call is a rough fit, not a confirmed value. The source made the active and inactive calls. Unless noted, calls come from the whole dose curve; as a rule, active = well fitted curve in the direction sought with a large enough effect in the repeat runs; inconclusive = weak or mixed curves; inactive = no such curve, though single readings can be large; an effect the other way counts as inactive or inconclusive.
# What was measured:
# [1] = qHTS assay for small molecule agonists of the p53 signaling pathway (AID 651631; calls by dose curve; note: % is set by controls: 0 for no effect and ±100 for the full control effect; nearly all actives have a fitted effect of over 15% in size); details: HCT-116 p53RE-bla reporter, beta-lactamase FRET ratio, 16 h; activation: at 73.3 µM (top of the series) unless noted
# In short: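 Testing took place in human colorectal HCT-116 cells with stable p53RE-driven beta-lactamase. After 16 h of compound exposure at 37 °C, a FRET substrate was added and fluorescence recorded 2 h later.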
# [2] = qHTS assay for small molecule disruptors of the mitochondrial membrane potential (AID 720635); details: HepG2 mitochondrial membrane potential, Mito-MPS dye ratio; ratio activity, negative = MMP loss: at 83.2 µM (top of the series) unless noted; note: % is set by controls: 0 for no effect and ±100 for the full control effect
# In short: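 HepG2 cells (2,000/well) attached overnight at 37C, then took compound for 1 hr at 37C, 5% CO2. Mito-MPS dye was added for 30 min; fluorescence was read at 490/535 nm (monomers) and 540/590 nm (aggregates).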
# [3] = qHTS assay for identifying genotoxic compounds that show differential cytotoxicity against isogenic chicken DT40 cell lines with known DNA damage response pathways - Rev3 mutant cell line (AID 743014); details: chicken DT40 Rev3-/- viability, CellTiter-Glo, 40 h; activity, negative = cytotoxicity: at 68.4 µM (top of the series) unless noted; note: nearly all actives have a fitted effect of over 55% in size; note: potency is the fitted concentration of half-maximal effect
# [4] = target: Peroxisome proliferator-activated receptor gamma (Homo sapiens) (UniProt P37231); assay: qHTS assay to identify small molecule antagonists of the peroxisome proliferator-activated receptor gamma (PPARg) signaling pathway (AID 743191; calls by dose curve; note: % is set by controls: 0 for no effect and ±100 for the full control effect; nearly all actives have a fitted effect of over 30% in size); details: HEK293H PPARg-UAS-bla, beta-lactamase ratio, antagonist, 17 h; ratio activity, negative = inhibition: at 62.6 µM (top of the series) unless noted
# Sequence of UniProt P37231 (P37231 whole entry, looked up): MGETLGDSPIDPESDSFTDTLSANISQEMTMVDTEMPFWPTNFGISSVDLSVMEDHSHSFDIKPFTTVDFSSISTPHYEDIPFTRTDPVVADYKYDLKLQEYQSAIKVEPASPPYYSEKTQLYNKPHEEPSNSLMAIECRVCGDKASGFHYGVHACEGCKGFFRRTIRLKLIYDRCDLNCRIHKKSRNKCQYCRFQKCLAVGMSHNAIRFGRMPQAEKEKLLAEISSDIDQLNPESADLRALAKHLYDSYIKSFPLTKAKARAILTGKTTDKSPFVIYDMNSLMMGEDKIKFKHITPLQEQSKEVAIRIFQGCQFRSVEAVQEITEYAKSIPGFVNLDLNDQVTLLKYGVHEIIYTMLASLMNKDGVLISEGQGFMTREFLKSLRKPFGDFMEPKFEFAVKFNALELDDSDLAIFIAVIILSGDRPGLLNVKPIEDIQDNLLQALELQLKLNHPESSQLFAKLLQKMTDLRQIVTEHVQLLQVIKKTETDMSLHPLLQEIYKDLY
# In short: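 GeneBLAzer PPARg UAS-bla HEK293H cells carrying a UAS-driven beta-lactamase reporter were plated at 3000 cells/well, preincubated 5 h at 37C, then given compound for 17 h at 37C; LiveBLAzer B/G FRET substrate was read after 1 h at room temperature.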
# [5] = qHTS assay for small molecule agonists of the antioxidant response element (ARE) signaling pathway (AID 743202; active = well fitted activation curve with a large enough effect in the signal ratio in the repeat runs, not every such curve was filed as active; inconclusive = weak or mixed curves, or effect the other way; inactive = no such curve, though single readings can be large or run the other way; the % refers to the signal ratio; note: potency is the fitted concentration of half-maximal effect; for activation: % is set by controls: 0 for no effect and ±100 for the full control effect); details: HepG2 ARE-bla reporter, beta-lactamase FRET, 16 h; activation: at 73.3 µM (top of the series) unless noted
# In short: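 Steps: seed ARE-bla HepG2 cells (2,000/well); incubate 5 h at 37 C; add compounds by pin tool; incubate 16 h at 37 C; add FRET substrate; read fluorescence after 2 h at RT.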
# [6] = qHTS assay to identify small molecule agonists of the retinoic acid receptor (RAR) signaling pathway (AID 1159553); details: C3RL4 RARE luciferase reporter, agonist, 6 h; activation: at 73.3 µM (top of the series) unless noted; note: potency is the fitted concentration of half-maximal effect; for activation: % is set by controls: 0 for no effect and ±100 for the full control effect
# In short: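 Luminescence was measured 30 min after luciferase reagent addition at room temperature. Before that, C3RL4 reporter cells (1,000 per well, plated overnight) were treated with compound for 6 hr at 37 C and 5% CO2.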
# [7] = qHTS assay to identify small molecule antagonists of the sonic hedgehog signaling (Shh) pathway (AID 1259369; calls by dose curve; note: potency is the fitted concentration of half-maximal effect; nearly all actives have a fitted effect of over 45% in size)
# In short: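 Antagonist mode: compound added to 3T3 Gli1-Luc cells followed by conditioned-medium stimulation, 24 h at 37 C, 5% CO2. Inhibition taken as loss of Gli1-driven luciferase luminescence.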
# [8] = target: Estrogen receptor beta (Homo sapiens) (UniProt Q92731); assay: qHTS assay to identify small molecule antagonists of the estrogen receptor beta (ER-beta) signaling pathway (AID 1259378; active = well fitted inhibition curve with a large enough effect in the signal ratio in the repeat runs, not every such curve was filed as active; inconclusive = weak or mixed curves, or effect the other way; inactive = no such curve, though single readings can be large or run the other way; the % refers to the signal ratio; note: potency is the fitted concentration of half-maximal effect); details: ER-beta-UAS-bla HEK293T, beta-lactamase FRET ratio, 16 h; activity, negative = inhibition: at 92.4 µM (top of the series) unless noted
# Sequence of UniProt Q92731 (Q92731 whole entry, looked up): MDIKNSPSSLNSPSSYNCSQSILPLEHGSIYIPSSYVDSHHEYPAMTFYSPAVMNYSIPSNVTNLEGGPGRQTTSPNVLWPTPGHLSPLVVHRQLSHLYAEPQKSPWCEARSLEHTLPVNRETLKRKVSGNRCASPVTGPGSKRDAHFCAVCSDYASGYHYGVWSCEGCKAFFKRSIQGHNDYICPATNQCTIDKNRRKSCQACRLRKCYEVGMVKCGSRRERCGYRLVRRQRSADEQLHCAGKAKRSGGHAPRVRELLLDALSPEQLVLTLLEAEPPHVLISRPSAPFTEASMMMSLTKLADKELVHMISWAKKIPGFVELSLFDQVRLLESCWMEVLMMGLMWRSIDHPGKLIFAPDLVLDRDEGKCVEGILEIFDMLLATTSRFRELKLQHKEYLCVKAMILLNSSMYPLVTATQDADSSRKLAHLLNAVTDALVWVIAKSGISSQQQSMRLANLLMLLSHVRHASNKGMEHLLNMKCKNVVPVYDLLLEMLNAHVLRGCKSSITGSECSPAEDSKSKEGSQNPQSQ
# In short: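 ER-beta-UAS-bla HEK293T (GripTite) cells in 2% charcoal-stripped FBS medium were preincubated 6 hr at 37C, dosed with compound, then stimulated with 1 nM E2 (final) for 16 hr; beta-lactamase reporter read by B/G FRET fluorescence after 2 hr substrate loading.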
# [9] = target: Progesterone receptor (Homo sapiens) (UniProt P06401); assay: qHTS assay to identify small molecule antagonists of the progesterone receptor (PR) signaling pathway (AID 1346795; active = well fitted inhibition curve with a large enough effect in the signal ratio in the repeat runs, not every such curve was filed as active; inconclusive = weak or mixed curves; the % refers to the signal ratio; note: potency is the fitted concentration of half-maximal effect); details: PR-UAS-bla HEK293T, beta-lactamase FRET ratio, 16 h; activity change, negative = inhibition: at 92.4 µM (top of the series) unless noted
# Sequence of UniProt P06401 (P06401 whole entry, looked up): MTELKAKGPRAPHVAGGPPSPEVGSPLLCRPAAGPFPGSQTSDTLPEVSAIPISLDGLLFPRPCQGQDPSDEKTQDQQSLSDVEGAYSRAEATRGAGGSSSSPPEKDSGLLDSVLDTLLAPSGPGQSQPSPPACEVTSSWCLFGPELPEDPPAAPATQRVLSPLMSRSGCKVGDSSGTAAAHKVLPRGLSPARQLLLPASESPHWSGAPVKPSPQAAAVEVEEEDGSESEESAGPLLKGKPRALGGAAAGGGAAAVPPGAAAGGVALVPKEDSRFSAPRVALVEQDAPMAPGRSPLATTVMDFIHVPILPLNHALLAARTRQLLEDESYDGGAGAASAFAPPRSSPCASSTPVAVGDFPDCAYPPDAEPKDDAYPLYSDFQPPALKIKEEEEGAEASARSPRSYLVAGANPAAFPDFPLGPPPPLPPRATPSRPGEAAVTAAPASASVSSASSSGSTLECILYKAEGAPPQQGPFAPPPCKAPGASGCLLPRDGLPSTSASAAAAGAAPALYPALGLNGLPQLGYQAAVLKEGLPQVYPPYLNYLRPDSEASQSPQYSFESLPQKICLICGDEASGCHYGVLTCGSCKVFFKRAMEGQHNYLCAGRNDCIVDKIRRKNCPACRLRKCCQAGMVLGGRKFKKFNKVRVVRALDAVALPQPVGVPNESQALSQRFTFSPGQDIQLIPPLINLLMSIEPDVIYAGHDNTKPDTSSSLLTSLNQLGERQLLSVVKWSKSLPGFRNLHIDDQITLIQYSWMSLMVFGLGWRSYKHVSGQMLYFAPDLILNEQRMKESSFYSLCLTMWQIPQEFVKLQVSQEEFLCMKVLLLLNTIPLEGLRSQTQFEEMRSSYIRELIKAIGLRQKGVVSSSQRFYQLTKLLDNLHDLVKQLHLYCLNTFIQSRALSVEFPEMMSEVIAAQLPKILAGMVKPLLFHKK
# In short: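 Fluorescence intensity measured 2 hr after adding beta-lactamase FRET substrate to PR-UAS-bla HEK293T cells that had been co-treated 16 hr with compound and 1 nM R5020 (final concentration) in 2% charcoal-stripped FBS.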
# [10] = target: Cytochrome P450 1A2 (Homo sapiens) (UniProt P05177); assay: Cytochrome P450 Family 1 Subfamily A Member 2 (CYP1A2) small molecule antagonists: luciferase reporter qHTS assay (AID 1671199); note: potency is the fitted concentration of half-maximal effect; nearly all actives have a fitted effect of over 50% in size
# Sequence of UniProt P05177 (P05177 whole entry, looked up): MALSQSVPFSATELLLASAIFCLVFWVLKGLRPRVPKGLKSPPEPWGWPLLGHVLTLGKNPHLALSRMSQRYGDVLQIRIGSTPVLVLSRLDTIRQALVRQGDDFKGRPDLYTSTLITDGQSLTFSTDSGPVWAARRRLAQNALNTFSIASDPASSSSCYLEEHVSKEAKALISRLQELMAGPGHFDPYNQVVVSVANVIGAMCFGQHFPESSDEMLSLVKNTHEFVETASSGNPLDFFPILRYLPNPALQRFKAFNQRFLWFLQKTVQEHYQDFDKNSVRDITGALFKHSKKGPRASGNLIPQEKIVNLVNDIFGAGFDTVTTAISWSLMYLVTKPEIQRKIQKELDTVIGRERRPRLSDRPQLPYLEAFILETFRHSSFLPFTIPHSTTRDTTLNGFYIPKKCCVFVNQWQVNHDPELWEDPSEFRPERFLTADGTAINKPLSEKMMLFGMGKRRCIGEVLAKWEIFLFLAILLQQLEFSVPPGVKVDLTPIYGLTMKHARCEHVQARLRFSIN
# In short: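 Luminescence from luciferin formed by CYP1A2 from a proluciferin substrate, read 20 min after detection reagent. Compound was pre-incubated 10 min with enzyme-substrate, and reaction started with NADPH regeneration solution for 1 h at room temperature; furafylline control.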
# [11] = qHTS assay to identify small molecule antagonists of the thyroid receptor (TR) signaling pathway - cell viability counter screen (AID 743064); details: GH3.TRE-Luc viability, CellTiter-Fluor, 24 h; activity change, negative = cytotoxic: at 70.3 µM (top of the series) unless noted; note: % is set by controls: 0 for no effect and ±100 for the full control effect; nearly all actives have a fitted effect of over 50% in size
# In short: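 Viability of T3-stimulated (1 nM final) GH3.TRE-Luc cells is measured by CellTiter-Fluor fluorescence after 23.5 h compound exposure at 37 °C plus 30 min reagent incubation.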
# [12] = target: Estrogen receptor (Homo sapiens) (UniProt P03372); assay: qHTS assay to identify small molecule agonists of the estrogen receptor alpha (ER-alpha) signaling pathway using the BG1 cell line (AID 743079); details: BG1Luc4E2 cells, ERE-luciferase agonist, 22 h; activation: at 70.3 µM (top of the series) unless noted; note: potency is the fitted concentration of half-maximal effect; nearly all actives have a fitted effect of over 20% in size
# Sequence of UniProt P03372 (P03372 whole entry, looked up): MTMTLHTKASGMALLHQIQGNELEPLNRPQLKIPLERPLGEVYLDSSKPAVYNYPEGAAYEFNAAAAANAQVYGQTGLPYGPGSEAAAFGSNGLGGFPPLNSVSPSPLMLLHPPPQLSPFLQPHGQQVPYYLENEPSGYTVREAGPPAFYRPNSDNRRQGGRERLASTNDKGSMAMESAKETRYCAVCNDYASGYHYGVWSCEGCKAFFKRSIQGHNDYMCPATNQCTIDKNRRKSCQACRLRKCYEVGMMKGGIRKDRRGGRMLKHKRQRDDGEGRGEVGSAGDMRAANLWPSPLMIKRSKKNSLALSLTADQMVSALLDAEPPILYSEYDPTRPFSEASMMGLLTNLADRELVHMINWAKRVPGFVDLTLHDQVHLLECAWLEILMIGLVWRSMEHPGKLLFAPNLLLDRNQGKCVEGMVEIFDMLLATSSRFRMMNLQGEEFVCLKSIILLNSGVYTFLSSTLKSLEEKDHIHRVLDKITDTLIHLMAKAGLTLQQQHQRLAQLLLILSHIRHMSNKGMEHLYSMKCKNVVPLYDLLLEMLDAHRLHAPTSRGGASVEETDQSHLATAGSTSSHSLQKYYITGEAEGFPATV
# [13] = target: Vitamin D3 receptor (Homo sapiens) (UniProt P11473); assay: qHTS assay to identify small molecule antagonists of the vitamin D receptor (VDR) signaling pathway (AID 743223; active = well fitted inhibition curve with a large enough effect in the signal ratio in the repeat runs, not every such curve was filed as active; inconclusive = weak or mixed curves, or effect the other way; inactive = no such curve, though single readings can be large or run the other way; the % refers to the signal ratio; note: % is set by controls: 0 for no effect and ±100 for the full control effect); details: VDR-UAS-bla HEK293T, beta-lactamase FRET ratio, 16 h; activity change, negative = inhibition: at 61 µM (top of the series) unless noted
# Sequence of UniProt P11473 (P11473 whole entry, looked up): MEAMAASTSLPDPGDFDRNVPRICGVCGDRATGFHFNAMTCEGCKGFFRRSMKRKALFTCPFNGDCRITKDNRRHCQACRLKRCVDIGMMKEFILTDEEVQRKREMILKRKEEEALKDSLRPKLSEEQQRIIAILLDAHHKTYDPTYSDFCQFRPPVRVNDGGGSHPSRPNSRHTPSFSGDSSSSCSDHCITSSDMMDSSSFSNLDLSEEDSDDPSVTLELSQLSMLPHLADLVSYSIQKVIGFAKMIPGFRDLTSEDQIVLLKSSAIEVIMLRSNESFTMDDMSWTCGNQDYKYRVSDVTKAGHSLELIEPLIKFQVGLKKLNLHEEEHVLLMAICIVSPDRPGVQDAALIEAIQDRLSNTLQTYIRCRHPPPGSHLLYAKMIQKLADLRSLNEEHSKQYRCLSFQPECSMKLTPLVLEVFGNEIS
# In short: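 Quantitative HTS in VDR-bla reporter cells stimulated with 1alpha,25-dihydroxyvitamin D3, 3 nM final. Compound exposure 16 h, 37C, 5% CO2. Read-out: beta-lactamase FRET substrate fluorescence, 2 h RT.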
# [14] = target: Cytochrome P450 2C19 (Homo sapiens) (UniProt P33261); assay: Cytochrome P450 Family 2 Subfamily C Member 19 (CYP2C19) small molecule antagonists: luciferase reporter qHTS assay (AID 1671197); note: potency is the fitted concentration of half-maximal effect; nearly all actives have a fitted effect of over 65% in size
# Sequence of UniProt P33261 (P33261 whole entry, looked up): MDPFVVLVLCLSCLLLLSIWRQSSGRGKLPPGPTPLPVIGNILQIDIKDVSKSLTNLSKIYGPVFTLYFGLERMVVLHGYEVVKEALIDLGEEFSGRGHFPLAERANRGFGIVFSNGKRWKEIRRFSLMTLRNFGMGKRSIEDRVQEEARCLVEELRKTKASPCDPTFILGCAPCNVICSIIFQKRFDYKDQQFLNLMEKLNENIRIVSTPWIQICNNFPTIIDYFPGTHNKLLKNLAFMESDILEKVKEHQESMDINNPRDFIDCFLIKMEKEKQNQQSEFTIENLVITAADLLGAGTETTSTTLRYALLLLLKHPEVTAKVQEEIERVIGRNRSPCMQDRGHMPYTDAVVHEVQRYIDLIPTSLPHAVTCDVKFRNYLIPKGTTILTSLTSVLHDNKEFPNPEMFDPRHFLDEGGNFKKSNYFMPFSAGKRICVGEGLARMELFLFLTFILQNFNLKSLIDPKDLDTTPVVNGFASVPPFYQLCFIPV
# In short: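 Enzyme-substrate mix with proluciferin substrate (P450-Glo CYP2C19 system) preincubated with compounds 10 min at room temperature; NADPH regeneration solution added, 37C for 1 h; detection reagent stops reaction, luminescence read after 20 min. Ketoconazole positive control.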
# [15] = target: Cytochrome P450 2C9 (Homo sapiens) (UniProt P11712); assay: Cytochrome P450 Family 2 Subfamily C Member 9 (CYP2C9) small molecule antagonists: luciferase reporter qHTS assay (AID 1671198); note: % is set by controls: 0 for no effect and ±100 for the full control effect; nearly all actives have a fitted effect of over 50% in size
# Sequence of UniProt P11712 (P11712 whole entry, looked up): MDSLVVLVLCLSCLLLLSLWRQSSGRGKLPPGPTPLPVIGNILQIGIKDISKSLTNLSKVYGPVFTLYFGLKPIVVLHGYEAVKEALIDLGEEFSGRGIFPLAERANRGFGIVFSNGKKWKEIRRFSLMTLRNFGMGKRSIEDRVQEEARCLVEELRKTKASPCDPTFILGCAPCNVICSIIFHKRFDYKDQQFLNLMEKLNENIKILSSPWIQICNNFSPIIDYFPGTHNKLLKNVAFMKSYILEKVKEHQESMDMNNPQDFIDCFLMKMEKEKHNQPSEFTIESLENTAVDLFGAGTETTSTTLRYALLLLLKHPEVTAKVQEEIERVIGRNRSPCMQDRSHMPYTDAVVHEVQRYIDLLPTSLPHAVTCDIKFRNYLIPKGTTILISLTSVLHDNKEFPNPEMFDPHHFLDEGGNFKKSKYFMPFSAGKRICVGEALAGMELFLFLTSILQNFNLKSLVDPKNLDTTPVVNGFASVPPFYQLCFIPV
# In short: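 CYP2C9 activity was measured with a P450-Glo proluciferin substrate. Enzyme–substrate mix was held with compound for 10 min at room temperature, then NADPH regeneration solution was added for 1 h at 37C. Luciferin product was read as luminescence.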
# [16] = target: Cytochrome P450 2D6 (Homo sapiens) (UniProt P10635); assay: Cytochrome P450 Family 2 Subfamily D Member 6 (CYP2D6) small molecule antagonists: luciferase reporter qHTS assay (AID 1671196); note: potency is the fitted concentration of half-maximal effect; nearly all actives have a fitted effect of over 50% in size
# Sequence of UniProt P10635 (P10635 whole entry, looked up): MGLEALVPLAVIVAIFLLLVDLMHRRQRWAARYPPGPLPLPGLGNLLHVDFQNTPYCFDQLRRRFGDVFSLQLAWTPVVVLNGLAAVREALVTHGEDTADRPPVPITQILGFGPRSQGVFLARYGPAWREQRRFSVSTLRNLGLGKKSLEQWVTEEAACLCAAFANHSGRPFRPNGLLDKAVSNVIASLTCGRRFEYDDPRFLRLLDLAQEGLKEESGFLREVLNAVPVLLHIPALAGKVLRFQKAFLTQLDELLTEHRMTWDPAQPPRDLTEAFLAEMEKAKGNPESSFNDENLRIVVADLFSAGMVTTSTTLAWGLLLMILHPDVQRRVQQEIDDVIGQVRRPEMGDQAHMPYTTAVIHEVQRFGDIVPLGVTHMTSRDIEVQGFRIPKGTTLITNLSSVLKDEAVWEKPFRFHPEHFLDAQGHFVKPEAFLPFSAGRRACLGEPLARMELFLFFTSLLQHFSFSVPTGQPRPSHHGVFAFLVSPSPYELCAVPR
# In short: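 CYP2D6 activity was followed as luminescence from its luciferin product after a 1 h NADPH-driven reaction at room temperature. Enzyme-substrate mix and compound were pre-incubated for 10 min, and the signal was read 20 min after adding detection reagent.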
# [17] = qHTS assay to identify small molecule agonists of the progesterone receptor (PR) signaling pathway - cell viability counter screen (AID 1346799; calls by dose curve; note: % is set by controls: 0 for no effect and ±100 for the full control effect; nearly all actives have a fitted effect of over 45% in size)
# In short: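 In parallel with the beta-lactamase readout, cytotoxicity toward PR-UAS-bla HEK293T cells was measured by CellTiter-Glo luminescence following 16 hr compound incubation in 2% charcoal-stripped FBS medium.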
# Tags give direction and shape of the fitted curve or compound fluorescence and quenching.
compound,measurement,setting,value
CN(C1CCCCC1)S(=O)(=O)c1ccccc1N,activation,[1],inconclusive: 3.65%
same,"ratio activity, negative = MMP loss",[2],inconclusive: -41.7%
same,Potency,[3],inconclusive: 54.5 µM [cytotoxic]
same,Potency,[4],inactive
same,activation,[5],inconclusive: 20.6%
same,Potency,[6],inactive
same,Potency,[7],"inconclusive: 68.6 µM [inhibitor, single point]"
same,Potency,[8],"inconclusive: 27.3 µM [inhibitor, partial curve]"
same,Potency,[9],active: 17.2 µM
same,Potency,[10],"inconclusive: 39.9 µM [inhibitor, partial curve]"
O=C(O)CCSSCCC(=O)O,"ratio activity, negative = MMP loss",[2],inconclusive: 3.19% [at 95.3 µM]
same,Potency,[3],inactive
same,Potency,[4],inactive
same,Potency,[5],inactive
same,Potency,[6],"inconclusive: 78.1 µM [activator, single point]"
same,Potency,[9],inactive
CC(C)CCCC(C)N (stereo not given),Potency,[1],inactive
same,Potency,[11],inactive
same,Potency,[12],active: 21.1 µM
same,"ratio activity, negative = inhibition",[4],inconclusive: -7.84%
same,activation,[5],inconclusive: 31.7%
same,Potency,[13],inactive
same,Potency,[6],inactive
same,Potency,[8],inactive
same,Potency,[14],"inconclusive: 38.9 µM [inhibitor, single point]"
same,Potency,[15],inactive
COC(OC)(C(=O)c1ccccc1)c1ccccc1,"ratio activity, negative = MMP loss",[2],inconclusive: -7.5%
same,Potency,[12],active: 4.32 µM
same,Potency,[13],inactive
same,activation,[6],inconclusive: -1.38% [phenotype inactive]
same,Potency,[9],inconclusive: 68.5 µM [single point]
same,Potency,[16],"inconclusive: 35.5 µM [inhibitor, partial curve]"
O=C(O)C(=O)Cc1ccccc1,"ratio activity, negative = MMP loss",[2],inconclusive: -14.1%
same,Potency,[5],active: 27.3 µM
same,activation,[6],inconclusive: -5.93% [phenotype inactive]
same,Potency,[7],"inconclusive: 68.6 µM [inhibitor, single point]"
same,Potency,[17],inactive
same,Potency,[14],"inconclusive: 22.4 µM [inhibitor, single point]"
same,Potency,[15],inactive
same,Potency,[10],"inconclusive: 39.9 µM [inhibitor, partial curve]"
